This assay addresses T1, human GPR119 (Homo sapiens, UniProt Q8TDV5).
T1 construct: host or cells: HEK293-CRE beta-lactamase cells
T1 sequence (Q8TDV5 1-335): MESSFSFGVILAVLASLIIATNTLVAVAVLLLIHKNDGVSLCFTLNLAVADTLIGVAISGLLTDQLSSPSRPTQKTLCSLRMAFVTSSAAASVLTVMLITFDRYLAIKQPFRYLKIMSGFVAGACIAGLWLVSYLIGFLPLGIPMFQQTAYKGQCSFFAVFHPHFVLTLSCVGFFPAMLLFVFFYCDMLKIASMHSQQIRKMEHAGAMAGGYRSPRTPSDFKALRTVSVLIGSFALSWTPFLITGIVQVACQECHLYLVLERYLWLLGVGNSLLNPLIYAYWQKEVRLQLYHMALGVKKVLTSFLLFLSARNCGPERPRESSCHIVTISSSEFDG
Kind of assay: cAMP functional assay (HTRF, hGPR119 HEK-CRE beta-lactamase cells). The class given is cell-based. Conditions: 30 min incubation with IBMX, one value per run. On the procedure:
GPR119 agonist activity was also determined with a cell-based assay utilizing an
HTRF (Homogeneous Time-Resolved Fluorescence) cAMP detection kit (cAMP dynamic 2 Assay Kit; Cis Bio cat # 62AM4PEC) that measures cAMP levels in the cell. The method is a competitive immunoassay between native cAMP produced by the cells and the cAMP labeled with the dye d2. The tracer binding is visualized by a Mab anti-cAMP labeled with Cryptate. The specific signal (Le. energy transfer) is inversely proportional to the concentration of cAMP in either standard or sample. […]
Varying concentrations of each compound to be tested were diluted in assay buffer containing 3-isobutyl-1-methylxanthin (1BMX; Sigma cat #15879) and added to the assay plate weds in a volume of 2 microL (final BMX concentration was 400 microM and final DMSO concentration was 0.58%). […] The plates were then incubated at room temperature and after 60 minutes, changes in the HTRF signal were read with an Envision 2104 multilabel plate reader using excitation of 330 nm and emissions of 615 and 665 nm. Raw data were converted to nM cAMP by interpolation from a cAMP standard curve (as described in the manufacturer's assay protocol) and EC50 determinations were made from an agonist-response curves analyzed with a curve fitting program using a 4-paramter logistic dose response equation.

SMILES strings stand for the structures. For part of its entries the source gives two or more results. The other results are left out here. The source may hold further records. The values listed for one entry seem to repeat one measurement; a mean can stand among them.

For `Cc1c(OC2CCN(C(=O)OC(C)C)CC2)ncnc1N1CCn2nccc21` [Example 1, Isopropyl 4-{[6-(2,3-dihydro-1H-imidazo[1,2-b]pyrazol-1-yl)-5-methylpyrimidin-4-yl]oxy}piperidine-1-carboxylate], the EC50 was 703 nM, 842 nM, > 10 µM [lines of one column].

Source of the values: patent US20120295845A1, “IMIDAZO-PYRAZOLES AS GPR119 INHIBITORS” (Pfizer Inc, priority 2009, published 2012).
